Measured values: patent US8592379B2, “Metastin derivative and use thereof” (Kyoto University, priority 2008, dated 2013)
At least one compound was matched to its structure with a doubt left.

Assays:
GPR54 [1] = target: T1, GPR54 (Homo sapiens (Human), UniProt Q969F8); experiment: Binding inhibitory test using membrane fraction of human GPR54-expressing cell and [125I]-Metastin 40-54; conditions: IC50 of compound divided by IC50 of kisspeptin-10
GPR54 [2] = target: T1, GPR54; experiment: Flipr assay of GPR54 agonist activity (increase in intracellular Ca2+ ion concentration); assay type: cell-based; conditions: EC50 of compound divided by EC50 of kisspeptin-10

T1 sequence (Q969F8 whole entry): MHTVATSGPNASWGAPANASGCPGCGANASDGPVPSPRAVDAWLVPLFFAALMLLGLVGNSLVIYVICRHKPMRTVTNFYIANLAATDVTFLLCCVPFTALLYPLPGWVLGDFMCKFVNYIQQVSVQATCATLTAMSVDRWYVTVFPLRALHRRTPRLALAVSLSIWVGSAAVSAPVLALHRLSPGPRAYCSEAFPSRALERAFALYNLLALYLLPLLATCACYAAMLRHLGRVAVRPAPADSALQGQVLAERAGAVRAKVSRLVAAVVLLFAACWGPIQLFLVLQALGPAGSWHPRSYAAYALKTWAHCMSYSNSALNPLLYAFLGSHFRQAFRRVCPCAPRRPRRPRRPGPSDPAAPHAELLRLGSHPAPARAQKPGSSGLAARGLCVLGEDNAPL

Compound | QIC (GPR54 [1]) | QEC (GPR54 [2])
CC(C)C[C@H](/C=C/CNC(=O)[C@H](Cc1ccccc1)NC(=O)c1ccc(F)cc1)C(=O)N[C@@H](CCCNC(=N)N)C(=O)N[C@@H](Cc1c[nH]c2ccccc12)C(N)=O [Compound 19] | 1.0 | 1.2
CC(C)C[C@H](CCCNC(=O)[C@H](Cc1ccccc1)NC(=O)c1ccc(F)cc1)C(=O)N[C@@H](CCCNC(=N)N)C(=O)N[C@@H](Cc1c[nH]c2ccccc12)C(N)=O [Compound 20] | 10 | 10
CC(C)C/C(=C\CCNC(=O)[C@H](Cc1ccccc1)NC(=O)c1ccc(F)cc1)C(=O)N[C@@H](CCCNC(=N)N)C(=O)N[C@@H](Cc1c[nH]c2ccccc12)C(N)=O [Compound 21] | 47 | 22
CC(C)C/C(=C\[C@@H](O)CNC(=O)[C@H](Cc1ccccc1)NC(=O)c1ccc(F)cc1)C(=O)N[C@@H](CCCNC(=N)N)C(=O)N[C@@H](Cc1c[nH]c2ccccc12)C(N)=O [Compound 22] | 270 | 
CC(C)C/C(=C\[C@H](O)CNC(=O)[C@H](Cc1ccccc1)NC(=O)c1ccc(F)cc1)C(=O)N[C@@H](CCCNC(=N)N)C(=O)N[C@@H](Cc1c[nH]c2ccccc12)C(N)=O [Compound 23] | 4800 | 

Further lines, results first:

QIC (GPR54 [1]) | QEC (GPR54 [2]) | Compound
3200 |  | CC(C)CC(C[C@@H](O)CNC(=O)[C@H](Cc1ccccc1)NC(=O)c1ccc(F)cc1)C(=O)N[C@@H](CCCNC(=N)N)C(=O)N[C@@H](Cc1c[nH]c2ccccc12)C(N)=O (single isomer, unassigned) [Compound 24a]
48 | 18 | CC(C)CC(C[C@@H](O)CNC(=O)[C@H](Cc1ccccc1)NC(=O)c1ccc(F)cc1)C(=O)N[C@@H](CCCNC(=N)N)C(=O)N[C@@H](Cc1c[nH]c2ccccc12)C(N)=O (single isomer, unassigned) [Compound 24b]
330 |  | CC(C)CC(C[C@H](O)CNC(=O)[C@H](Cc1ccccc1)NC(=O)c1ccc(F)cc1)C(=O)N[C@@H](CCCNC(=N)N)C(=O)N[C@@H](Cc1c[nH]c2ccccc12)C(N)=O (single isomer, unassigned) [Compound 25a]
2.5 | 1.5 | CC(C)CC(C[C@H](O)CNC(=O)[C@H](Cc1ccccc1)NC(=O)c1ccc(F)cc1)C(=O)N[C@@H](CCCNC(=N)N)C(=O)N[C@@H](Cc1c[nH]c2ccccc12)C(N)=O (single isomer, unassigned) [Compound 25b]
